Measured values as given in the supplement of paper PMC4604168 (melanoma cell lines).
Some of the results follow. Most values come without repeats; read them as rough.

Columns and labels:
Assay in all cases: cell count relative to DMSO control; melanoma cells; higher = more viable cells
Conditions in all cases: library dose: standard library concentration; 72 h
[1] = system: G361
[2] = system: IPC-298
[3] = system: IST-MEL1
[4] = system: LB2518-MEL
[5] = system: LOXIMVI
[6] = system: MEL-HO
[7] = system: MZ2-MEL
[8] = system: MeWo
[9] = system: RPMI7951
[10] = system: RVH-421
[11] = system: SkMel28
[12] = system: SkMel2
[13] = system: SkMel30
[14] = system: SkMel5
[15] = system: UACC257
[16] = system: UACC62
[17] = system: WM115
[18] = system: WM1716
[19] = system: WM1745
[20] = system: WM3526
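Note: cells treated in 1,536-well plates, then fixed and DAPI-stained, with nuclei counted from automated high-throughput microscope images.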

Structure (SMILES) | cell count [1] [%] | cell count [2] [%] | cell count [3] [%] | cell count [4] [%] | cell count [5] [%] | cell count [6] [%] | cell count [7] [%] | cell count [8] [%] | cell count [9] [%] | cell count [10] [%] | cell count [11] [%] | cell count [12] [%] | cell count [13] [%] | cell count [14] [%] | cell count [15] [%] | cell count [16] [%] | cell count [17] [%] | cell count [18] [%] | cell count [19] [%] | cell count [20] [%]
CC1(C)NC(=O)N(c2ccc([N+](=O)[O-])c(C(F)(F)F)c2)C1=O [nilutamide] + CC(C)(C)c1cnc(CSc2cnc(NC(=O)C3CCNCC3)s2)o1 [SNS-032] (first compound 5 µM, partner dose 0.05 µM) | 85.3 | 121 | 93.9 | 82.4 | 84.3 | 92.5 | 96.5 | 88.2 | 38.1 | 130 | 65.2 | 87 | 93.1 | 81.5 | 98.5 | 66.5 | 79.6 | 78.9 | 68.8 | 91.4
O=C(O)c1ccc(-c2c[nH]c3ncc(-c4ccccc4)cc23)cc1C1CCCC1 + O=C(O)C(=O)Nc1sc2c(c1C(=O)O)CCNC2 [TCS401] (first compound 0.8 µM, partner dose 8.33333 µM) | 86 | 78.9 | 97.4 | 102 | 83.2 | 73.7 | 81.2 | 81.8 | 105 | 25.6 | 108 | 89.6 | 94.3 | 82.1 | 87.5 | 121 | 76.9 | 114 | 82.8 | 84
O=C(O)c1ccc(-c2c[nH]c3ncc(-c4ccccc4)cc23)cc1C1CCCC1 + CC(C)CCN1c2nc(Nc3cc(F)c(O)c(F)c3)ncc2N(C)C(=O)C1C [BID1870] (first compound 0.8 µM, partner dose 1 µM) | 40.6 | 73.7 | 49.4 | 88.6 | 104 | 53.3 | 91.5 | 79.8 | 61.6 | 66.1 | 65 | 75.4 | 82.8 | 89.5 | 73.9 | 77.5 | 87.2 | 61.7 | 83.5 | 63
Cn1cncc1[C@@](N)(c1ccc(Cl)cc1)c1ccc2c(c1)c(-c1cccc(Cl)c1)cc(=O)n2C [tipifarnib] + O=c1cc(-c2cccc3c2Sc2ccccc2S3)oc(N2CCOCC2)c1 [KU55933] (first compound 0.05 µM, partner dose 5 µM) | 74.3 | 85.9 | 87.5 | 71.2 | 92.1 | 85.9 | 85.3 | 82 | 71.2 | 82.6 | 56.9 | 54.7 | 93.7 | 69.7 | 97.2 | 80.3 | 77.6 | 68.9 | 86.1 | 72.4
CC1(C)NC(=O)N(c2ccc([N+](=O)[O-])c(C(F)(F)F)c2)C1=O [nilutamide] + COC(=O)c1sccc1S(=O)(=O)Nc1ccc(Nc2ccccc2)cc1OC [GSK0660] (first compound 5 µM, partner dose 5 µM) | 97.7 | 96.3 | 119 | 108 | 116 | 99.7 | 103 | 82.9 | 83.8 | 103 | 107 | 99.6 | 96.7 | 99.6 | 95.6 | 99.1 | 94.5 | 80.2 | 75.8 | 84.5
C[C@@H]1CCN(C(=O)CC#N)C[C@@H]1N(C)c1ncnc2[nH]ccc12 + Cn1cc(/C=C2\C(=O)Nc3cccnc32)c2ccccc21 [GW441756] (first compound 5 µM, partner dose 2 µM) | 89.8 | 99.8 | 102 | 92.1 | 102 | 107 | 105 | 108 | 77 | 117 | 101 | 88.8 | 71.2 | 81.6 | 104 | 97 | 90.7 | 96.9 | 101 | 83.3
COc1cc(Nc2ncc(F)c(Nc3ccc4c(n3)NC(=O)C(C)(C)O4)n2)cc(OC)c1OC [Tamatinib] + Cn1cc(/C=C2\C(=O)Nc3cccnc32)c2ccccc21 [GW441756] (first compound 2 µM, partner dose 2 µM) | 71 | 74.4 | 78.5 | 72.4 | 43.8 | 80.3 | 68 | 72.9 | 54.5 | 105 | 72.5 | 78.5 | 74.3 | 51.8 | 82.6 | 56.4 | 74.6 | 79 | 45.9 | 69.3
Cn1cncc1[C@@](N)(c1ccc(Cl)cc1)c1ccc2c(c1)c(-c1cccc(Cl)c1)cc(=O)n2C [tipifarnib] + O=C1NC(=O)/C(=C/c2ccc(-c3ccc(F)cc3O)o2)S1 [AS252424] (first compound 0.05 µM, partner dose 5 µM) | 81.4 | 73.7 | 96 | 74.2 | 79.9 | 69.1 | 76.4 | 80.4 | 92.4 | 82.6 | 75.1 | 71.2 | 80.1 | 72.2 | 103 | 82.1 | 79 | 70.3 | 82.5 | 80.6
O=c1[nH]nc(Sc2ncc([N+](=O)[O-])s2)n1-c1ccc2c(c1)OCCO2 + CN1CCN(c2ccc3nc(-c4c(N)c5c(F)cccc5[nH]c4=O)[nH]c3c2)CC1 [Dovitinib] (first compound 1 µM, partner dose 0.5 µM) | 63.2 | 66 | 71.7 | 46 | 110 | 68.4 | 46.5 | 40.8 | 55 | 130 | 64.1 | 63.6 | 69.3 | 50.3 | 85.8 | 60.6 | 53.4 | 59.6 | 51.1 | 63.2
